Assay results reported in PubChem BioAssay AID686979 (National Center for Advancing Translational Sciences (NCATS), 2013).
About 50,000 (12%) of roughly 420,000 compounds were called active. Inconclusive means that the source gave no clear call. Such entries were picked first, then a sample of the others. Calls follow the shape of the dose curve; as a rule, active = well fitted inhibition curve with a large enough effect; inconclusive = small, poorly fitted or top-dose-only effect; inactive = flat fitted curve, though single readings scatter. Potencies of inconclusive entries are left out as doubtful fits.

Assay: qHTS for Inhibitors of human tyrosyl-DNA phosphodiesterase 1 (TDP1): qHTS in cells in presence of CPT; also: nearly all actives have a fitted effect of over 55% in size
Details: chicken DT40 Tdp1-/-;hTDP1 cells + 20 nM CPT, ATP luminescence, 48 h; activity change, negative = growth inhibition: at 46.2 µM (top of the series)
Summary of the method: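 Chicken DT40 Tdp1-/- cells stably complemented with human TDP1 were seeded at 400 cells/well in medium containing 20 nM camptothecin, exposed to pin-transferred compounds, and grown at 37 °C for at least 48 hr. Viability was read as ATP luminescence.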
% is scaled to controls: 0 for no effect and ±100 for the full control effect; potency is read from the fitted curve at half-maximal effect; tags tell the direction and shape of the fitted curve.

| SMILES | Potency | activity change, negative = growth inhibition |
| --- | --- | --- |
| Cc1cc(N=Cc2c(O)n(-c3cccc(Cl)c3)c(=O)c3ccccc23)no1 | active: 11.6 µM |  |
| CC1=C(n2nnc([N+](=O)[O-])n2)C(c2cccnc2)C(C#N)=C(N)O1 (configuration not stated) | active: 9.2 µM |  |
| COc1cc(OC)c(N2CC(C(=O)Nc3cc(Cl)ccc3N3CCOCC3)CC2=O)cc1Cl (configuration not stated) | active: 3.66 µM |  |
| Cc1ccc2cccc(N=Cc3c(C)[nH]n(-c4ccccc4)c3=O)c2n1 | inconclusive [inhibitor, single point] |  |
| O=S(=O)(Nc1cccc(-c2ccc(N3CCCC3)nn2)c1)c1ccc(F)c(C(F)(F)F)c1 | inactive |  |
| N/C(Cc1ccc(Cl)cc1)=N\OC(=O)Cc1ccc([N+](=O)[O-])cc1 | inconclusive [inhibitor, single point] |  |
| CCC[C@H]1CCCC/C=C\CCCC(=O)OCCN1C(=O)OC(C)(C)C | inconclusive [inhibitor, single point] |  |
| COc1ccc(-c2nnc(SCC(=O)N(C)Cc3ccccc3)o2)cc1OC | inconclusive [inhibitor, partial curve] |  |
| CCCC(=O)c1cc(F)c(N2CCN(S(=O)(=O)c3ccccc3)CC2)cc1C | active: 16.4 µM |  |
| CN(C)CC/C=C1/c2ccc(F)cc2Sc2ccc(Cl)cc21 | inconclusive [inhibitor, single point] |  |
| N#Cc1cccc(OC(=O)c2ccc3c(=O)n4c(nc3c2)CCC4)c1 | inactive |  |
| COc1cccc(-c2nccc(NCCc3c[nH]c4ccc(OC)cc34)n2)c1 | active: 13 µM |  |
| COC(=O)c1ccc(N2OC3(C)C=CC2CC3)cc1 (configuration not stated) | inactive |  |
| CCc1cc2cc(C)cc(C)c2nc1SCC(=O)N1CCN(C(=O)c2ccco2)CC1 | inconclusive [inhibitor, single point] |  |
| COC(=O)[C@@H]1[C@H]2SC(C)(C)[C@H](C(=O)OC)N2C(=O)N1Cc1cc2ccccc2n1S(=O)(=O)c1ccccc1 | inconclusive [inhibitor, single point] |  |
| O=C(COC(=O)C1CC1)Nc1ncc(Cl)cc1Cl | inconclusive [inhibitor, partial curve, poor fit] |  |
| O=C(c1cccnc1)N1N=C(c2cccs2)CC1c1ccc(F)cc1 (configuration not stated) | inactive |  |
| Cc1oc2c(c(C)cc3oc(=O)c(CC(=O)NCc4ccccc4)c(C)c32)c1C | inactive |  |
| C[C@@H](C(=O)O)c1ccc(-c2ccccc2)c(F)c1 | inactive |  |
| Cc1c(Cl)cccc1NC(=O)Cn1cc2c(n1)CCCC2 | inactive |  |
| CC1(C)CC(=O)CC(C2(O)C(=O)N(Cc3ccccc3)c3ccccc32)O1 (configuration not stated) | active: 2.59 µM |  |
| COc1ccc(C)cc1-n1nnc(C(=O)Nc2cccc(SC)c2)c1C | inconclusive [inhibitor, single point] |  |
| COc1cc(/C=C/C(=O)O)cc(S(=O)(=O)Nc2ccccc2Cl)c1OC | inactive |  |
| CC(C)C1C(=O)NC(=S)N1S(=O)(=O)c1ccc(C(C)(C)C)cc1 (configuration not stated) | inactive |  |

| SMILES | Potency | activity change, negative = growth inhibition |
| --- | --- | --- |
| CSc1nnc(Cc2sc(-c3ccccc3)nc2-c2ccccc2)o1 | inconclusive [inhibitor, single point] |  |
| COc1ccc(S(=O)(=O)N2CCOCC2)cc1NC(=O)C1CCCCN1S(=O)(=O)c1ccccc1 (configuration not stated) | inconclusive [inhibitor, single point] |  |
| CC1CCN(C(=O)C2CCN(S(=O)(=O)c3cc(Cl)ccc3Cl)CC2)CC1 | inconclusive [inhibitor, single point] |  |
| CC(C)(C)N(Cc1ccccc1)C(=O)c1ccc2c(c1)OCCO2 | inconclusive [inhibitor, single point] |  |
| C[C@]12CCC(=O)CC1CCC1C2CC[C@@]2(C)C1CC[C@@]21CCO1 (some centres not stated) | inconclusive [inhibitor, single point] |  |
| O=C(COc1ccccc1[N+](=O)[O-])NCCC1=CCCCC1 | inconclusive [inhibitor, partial curve] |  |
| COc1ccccc1OCc1nc(C#N)c(N2CC(C)CC(C)C2)o1 (configuration not stated) | active: 29.1 µM |  |
| CCC1C(=O)NCCN1Cc1ccc2c(c1)CN(Cc1cc(OC)c3c(c1)OCO3)CCO2 (configuration not stated) |  | inactive: -9.31% [at 9.04 µM] |
| CCC1CCCCN1S(=O)(=O)c1ccc(C(=O)Nc2nnc(C3CC3)o2)cc1 (configuration not stated) | inconclusive [inhibitor, single point] |  |
| Cc1ccccc1N/C=C/C(=C(C#N)C#N)N(C)C | inactive |  |
| Cc1nnc(N2CCOCC2)c2nn(-c3cccc(Cl)c3)c(C)c12 | inconclusive [inhibitor, single point] |  |
| COc1ccc(C(=O)NCC(c2cccnc2)N2CCc3ccccc32)cc1OC (configuration not stated) | active: 14.6 µM |  |
| O=C(C1CC(=O)N(C2CCCCC2)C1)N1CCN(c2cccc(C(F)(F)F)c2)CC1 (configuration not stated) | active: 16.4 µM |  |
| c1ccc(C2c3c(ccc4ccccc34)Oc3ncn4nc(-c5ccco5)nc4c32)cc1 (configuration not stated) | inconclusive [inhibitor, single point] |  |
| Cc1c(C)c2c(OCC(=O)NCc3ccncc3)cc3c(c2oc1=O)CCC(C)(C)O3 | inconclusive [inhibitor, full curve, poor fit] |  |
| Cc1cccc2nc(-c3cccnc3)c(Nc3ccccc3)n12 | inactive |  |
| NC(=O)CC(NC(=O)c1ccc(Br)cc1)c1ccc(N2CCC(Br)CC2)c([N+](=O)[O-])c1 (configuration not stated) | active: 18.4 µM |  |
| O=S(=O)(c1ccc2[nH]ccc2c1)N1CCCCCC1 | inactive |  |
| CCN(c1ccccc1)S(=O)(=O)c1ccc(C(=O)Nc2cccc(C)n2)cc1 | active: 23.1 µM |  |
| Cc1ccccc1NC(=O)N1CCNC(=O)C1CC(=O)Nc1cc(Cl)ccc1Cl (configuration not stated) | inactive |  |
| Cc1nnc2n(-c3ccccc3)c(=O)c3c4c(sc3n12)CCCC4 | inconclusive [inhibitor, single point] |  |
| C[C@@H]1CN([C@@H](C)CO)S(=O)(=O)c2ccc(Br)cc2O[C@H]1CN(C)C(=O)Cc1cccnc1 | inactive |  |
| O=C(Nc1cccc(F)c1)N1CC2(CCN(S(=O)(=O)c3ccccc3)CC2)C1 | inconclusive [inhibitor, single point] |  |
